# Results taken from the supplement of paper PMC8728848.
# The other results are listed elsewhere or left out.
# B1: PX14379A-bvu-539-28-539 (Bacteroides vulgatus) (protein)
# chain: EPYSEIIEEDYVPTEADEIALLATTYSQLRFVMDWYGLFDLQEESGDVIVTPTRPNGWDDGGTYKQMHKHTWDNQQGQPQSIWDYCYKGIANANKILKRADEGFFTEESKPKVVAEVKGVRALWYSILCDTHGNIPIQTSFSEEVPVQSTRKQVFDFIINELKEVMPNLPTEVNKSTYGRLTQWGAKCLMARMYLNAGVYTGTPMWNECLEQCNDIINSGLFSLETNYTDIFKTENSGCVETIFAIPYDEVYNEGDNNGPVFGAHMKFLSSNSRKVFNMQTTPWGGSAANPQFINSYDPDDMRLKYTWLQGDQYSPDGVLITTFPNKLPSIYKTDTDDGYRVGKYEIKVGAKSLLSNDFPYFRYTEVLLMKAECLLRLGQNETEAAHIVSQIRERAFRESAHPEKATVDAAWLKGDTHINYGTLDEKGQIDDAGNTEVVELGGLYDEWGWEFAAEARRRTDMIRFGTYQKKSWFNHTPTANDLNGNSILFPIHLDHLNTNPNLQQNPGYAGK
# Columns and labels:
# Assay in all cases: glycan array binding signal (z-score within array); higher = stronger binding
# Details in all cases: glycan notation: IUPAC condensed, linker removed
# [1] = biological target: Fuc(a1-2)Gal(b1-4)GlcNAc(b1-3)Gal(b1-4)GlcNAc(b1-3)Gal(b1-4)GlcNAc
# In short: (§1)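 Glycan array binding is given as a within-array Z-score, which can be read as non-binding when negative. The arrays, 3228 of them, came from the Consortium for Functional Glycomics database and were retained only where the protein sequence was available. Z-scores were averaged across arrays of the same protein sequence at different concentrations or buffers and across linkers.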
# [2] = biological target: Fuc(a1-2)Gal(b1-4)GlcNAc(b1-3)GalNAc
# In short: as §1
# [3] = biological target: Fuc(a1-2)Gal(b1-4)GlcNAc(b1-3)[Fuc(a1-2)Gal(b1-4)GlcNAc(b1-6)]GalNAc
# In short: as §1
# [4] = biological target: Fuc(a1-2)Gal(b1-4)GlcNAc(b1-3)[Fuc(a1-3)[Gal(b1-4)]GlcNAc(b1-6)]Gal(b1-4)Glc
# In short: as §1
# [5] = biological target: Fuc(a1-2)Gal(b1-4)GlcNAc(b1-6)GalNAc
# In short: as §1
# [6] = biological target: Fuc(a1-2)Gal(b1-4)GlcNAc6S
# In short: as §1
# [7] = biological target: Fuc(a1-2)Gal(b1-4)[Fuc(a1-3)]GlcNAc
# In short: as §1
# [8] = biological target: Fuc(a1-2)Gal(b1-4)[Fuc(a1-3)]GlcNAc(b1-2)Man(a1-3)[Fuc(a1-2)Gal(b1-4)[Fuc(a1-3)]GlcNAc(b1-2)Man(a1-6)]Man(b1-4)GlcNAc(b1-4)[Fuc(a1-6)]GlcNAc
# In short: as §1
# [9] = biological target: Fuc(a1-2)Gal(b1-4)[Fuc(a1-3)]GlcNAc(b1-2)[Fuc(a1-2)Gal(b1-4)[Fuc(a1-3)]GlcNAc(b1-4)]Man(a1-3)[Fuc(a1-2)Gal(b1-4)[Fuc(a1-3)]GlcNAc(b1-2)Man(a1-6)]Man(b1-4)GlcNAc(b1-4)GlcNAc
# In short: as §1
# [10] = biological target: Fuc(a1-2)Gal(b1-4)[Fuc(a1-3)]GlcNAc(b1-3)Gal(b1-4)[Fuc(a1-3)]GlcNAc
# In short: as §1
# [11] = biological target: Fuc(a1-2)Gal(b1-4)[Fuc(a1-3)]GlcNAc(b1-3)Gal(b1-4)[Fuc(a1-3)]GlcNAc(b1-3)Gal(b1-4)[Fuc(a1-3)]GlcNAc
# In short: as §1
# [12] = biological target: Fuc(a1-2)Gal(b1-4)[Fuc(a1-3)]GlcNAc(b1-3)GalNAc
# In short: as §1
# [13] = biological target: Fuc(a1-2)Gal(b1-4)[Fuc(a1-3)]GlcNAc(b1-3)[Neu5Ac(a2-6)Gal(b1-4)GlcNAc(b1-6)]Gal(b1-4)Glc
# In short: as §1
# [14] = biological target: Fuc(a1-2)Gal3S(b1-4)GlcNAc
# In short: as §1
# [15] = biological target: Fuc(a1-2)Gal6S(b1-3)GlcNAc
# In short: as §1
# [16] = biological target: Fuc(a1-2)Gal6S(b1-3)GlcNAc6S
# In short: as §1
# Fuc(a1-2)Gal6S(b1-4)Glc = biological target: Fuc(a1-2)Gal6S(b1-4)Glc
# In short: as §1
# [17] = biological target: Fuc(a1-2)Gal6S(b1-4)Glc6S
# In short: as §1
# Fuc(a1-2)[Gal(a1-3)]Gal = biological target: Fuc(a1-2)[Gal(a1-3)]Gal
# In short: as §1
# [18] = biological target: Fuc(a1-2)[Gal(a1-3)]Gal(b1-3)GalNAc
# In short: as §1
# [19] = biological target: Fuc(a1-2)[Gal(a1-3)]Gal(b1-3)GalNAc(b1-3)Gal(a1-4)Gal(b1-4)Glc
# In short: as §1
# [20] = biological target: Fuc(a1-2)[Gal(a1-3)]Gal(b1-3)GlcNAc
# In short: as §1
# [21] = biological target: Fuc(a1-2)[Gal(a1-3)]Gal(b1-3)GlcNAc(b1-2)Man(a1-3)[Fuc(a1-2)[Gal(a1-3)]Gal(b1-3)GlcNAc(b1-2)Man(a1-6)]Man(b1-4)GlcNAc(b1-4)GlcNAc
# In short: as §1
# [22] = biological target: Fuc(a1-2)[Gal(a1-3)]Gal(b1-3)GlcNAc(b1-2)Man(a1-3)[Fuc(a1-2)[Gal(a1-3)]Gal(b1-3)GlcNAc(b1-2)Man(a1-6)]Man(b1-4)GlcNAc(b1-4)[Fuc(a1-6)]GlcNAc
# In short: as §1
# [23] = biological target: Fuc(a1-2)[Gal(a1-3)]Gal(b1-3)GlcNAc(b1-3)GalNAc
# In short: as §1
# [24] = biological target: Fuc(a1-2)[Gal(a1-3)]Gal(b1-3)GlcNAc(b1-6)GalNAc
# In short: as §1
# [25] = biological target: Fuc(a1-2)[Gal(a1-3)]Gal(b1-4)Glc
# In short: as §1
# [26] = biological target: Fuc(a1-2)[Gal(a1-3)]Gal(b1-4)GlcNAc
# In short: as §1
# [27] = biological target: Fuc(a1-2)[Gal(a1-3)]Gal(b1-4)GlcNAc(b1-2)Man
# In short: as §1
# [28] = biological target: Fuc(a1-2)[Gal(a1-3)]Gal(b1-4)GlcNAc(b1-2)Man(a1-3)[Fuc(a1-2)[Gal(a1-3)]Gal(b1-4)GlcNAc(b1-2)Man(a1-6)]Man(b1-4)GlcNAc(b1-4)GlcNAc
# In short: as §1
# [29] = biological target: Fuc(a1-2)[Gal(a1-3)]Gal(b1-4)GlcNAc(b1-2)Man(a1-3)[Fuc(a1-2)[Gal(a1-3)]Gal(b1-4)GlcNAc(b1-2)Man(a1-6)]Man(b1-4)GlcNAc(b1-4)[Fuc(a1-6)]GlcNAc
# In short: as §1
# [30] = biological target: Fuc(a1-2)[Gal(a1-3)]Gal(b1-4)GlcNAc(b1-3)GalNAc
# In short: as §1
# [31] = biological target: Fuc(a1-2)[Gal(a1-3)]Gal(b1-4)GlcNAc(b1-3)[Fuc(a1-2)[Gal(a1-3)]Gal(b1-4)GlcNAc(b1-6)]GalNAc
# In short: as §1
# [32] = biological target: Fuc(a1-2)[Gal(a1-3)]Gal(b1-4)GlcNAc(b1-6)GalNAc
# In short: as §1
# [33] = biological target: Fuc(a1-2)[Gal(a1-3)]Gal(b1-4)[Fuc(a1-3)]Glc
# In short: as §1
# [34] = biological target: Fuc(a1-2)[Gal(a1-3)]Gal(b1-4)[Fuc(a1-3)]GlcNAc
# In short: as §1
# [35] = biological target: Fuc(a1-2)[Gal(a1-3)]Gal(b1-4)[Fuc(a1-3)]GlcNAc(b1-3)GalNAc
# In short: as §1
binder,measurement,setting,value
B1,glycan array binding signal (z-score),[1],0.063
same,glycan array binding signal (z-score),[2],-0.13
same,glycan array binding signal (z-score),[3],-0.243
same,glycan array binding signal (z-score),[4],-0.161
same,glycan array binding signal (z-score),[5],0.044
same,glycan array binding signal (z-score),[6],-0.256
same,glycan array binding signal (z-score),[7],-0.17
same,glycan array binding signal (z-score),[8],0.249
same,glycan array binding signal (z-score),[9],0.213
same,glycan array binding signal (z-score),[10],-0.369
same,glycan array binding signal (z-score),[11],-0.279
same,glycan array binding signal (z-score),[12],-0.231
same,glycan array binding signal (z-score),[13],-0.301
same,glycan array binding signal (z-score),[14],-0.25
same,glycan array binding signal (z-score),[15],-0.318
same,glycan array binding signal (z-score),[16],-0.24
same,glycan array binding signal (z-score),Fuc(a1-2)Gal6S(b1-4)Glc,-0.528
same,glycan array binding signal (z-score),[17],-0.173
same,glycan array binding signal (z-score),Fuc(a1-2)[Gal(a1-3)]Gal,-0.149
same,glycan array binding signal (z-score),[18],-0.221
same,glycan array binding signal (z-score),[19],-0.26
same,glycan array binding signal (z-score),[20],-0.419
same,glycan array binding signal (z-score),[21],9.25
same,glycan array binding signal (z-score),[22],-0.006
same,glycan array binding signal (z-score),[23],-0.295
same,glycan array binding signal (z-score),[24],-0.17
same,glycan array binding signal (z-score),[25],0.003
same,glycan array binding signal (z-score),[26],-0.199
same,glycan array binding signal (z-score),[27],0.337
same,glycan array binding signal (z-score),[28],0.349
same,glycan array binding signal (z-score),[29],0.106
same,glycan array binding signal (z-score),[30],-0.384
same,glycan array binding signal (z-score),[31],-0.299
same,glycan array binding signal (z-score),[32],-0.194
same,glycan array binding signal (z-score),[33],-0.231
same,glycan array binding signal (z-score),[34],-0.355
same,glycan array binding signal (z-score),[35],0.191
